Reference: patent US20200385440A1

Assays:
[1] = target: Titin pMHC (UniProt Q8WZ42); experiment: Summary table, row 'IC50 Titin pMHC binding'; ELISA on captured biotinylated Titin pMHC (which calls the value EC50). The value is taken as that of the parental protein, since the next row gives the shift of the masked TCR.
[2] = target: MAGE-A3 pMHC (UniProt P43357); experiment: ELISA, biotinylated pMHC on neutravidin plates, anti-histag HRP detection, after urokinase treatment
[3] = target: MAGE-A3 pMHC (UniProt P43357); experiment: Summary table, row 'IC50 MAGE-A3 pMHC binding'; ELISA on captured biotinylated MAGE-A3 pMHC (which calls the value EC50). The value is taken as that of the parental protein, since the next row gives the shift of the masked TCR.
[4] = target: MAGE-A3 pMHC (UniProt P43357); experiment: Summary table, row 'Masked TCR shift' under 'IC50 MAGE-A3 pMHC binding': fold shift of masked TCR-14 against parental TCR-13; ELISA
[5] = target: Titin pMHC (UniProt Q8WZ42); experiment: Summary table, row 'Masked TCR shift' under 'IC50 Titin pMHC binding': fold shift of masked TCR-14 against parental TCR-13; ELISA
[6] = target: MAGE-A3 pMHC (UniProt P43357); experiment: ELISA, biotinylated pMHC on neutravidin plates, anti-histag HRP detection, after urokinase cleavage
[7] = target: Titin pMHC (UniProt Q8WZ42); experiment: as above

B1: TCR-13 (TCR)
TCR alpha: MQEVTQIPAALSVPEGENLVLNCSFTDSAIYNLQWFRQDPGKGLTSLLYVRPYQREQTSGRLNASLDKSSGRSTLYIAASQPGDSATYLCAVRPGGAGPFFVVFGKGTKLSVIPNIQNPDPAVYQLRDSKSSDKSVCLFTDFDSQTNVSQSKDSDVYITDKCVLDMRSMDFKSNSAVAWSNKSDFACANAFNNSIIPEDTFFPSPESSGGHHHHHHHH
TCR beta: [sequence of about 250 residues omitted]GGGGSKAGVTQTPRYLIKTRGQQVTLSCSPISGHRSVSWYQQTPGQGLQFLFEYFSETQRNKGNFPGRFSGRQFSNSRSEMNVSTLELGDSALYLCASSFNMATGQYFGPGTRLTVTEDLKNVFPPEVAVFEPSEAEISHTQKATLVCLATGFYPDHVELSWWVNGKEVHSGVCTDPQPLKEQPALNDSRYALSSRLRVSATFWQNPRNHFRCQVQFYGLSENDEWTQDRAKPVTQIVSAEAWGRADGGGLNDIFEAQKIEWHE
IC50 [1]: 1 nM
EC50 [2]: 0.7 nM
IC50 [3]: 0.5 nM

B2: TCR-14 (TCR)
TCR alpha: MGGVSCKDVYDEAFCWTGGGGSLSGRSDNHGSSGTKQEVTQIPAALSVPEGENLVLNCSFTDSAIYNLQWFRQDPGKGLTSLLYVRPYQREQTSGRLNASLDKSSGRSTLYIAASQPGDSATYLCAVRPGGAGPFFVVFGKGTKLSVIPNIQNPDPAVYQLRDSKSSDKSVCLFTDFDSQTNVSQSKDSDVYITDKCVLDMRSMDFKSNSAVAWSNKSDFACANAFNNSIIPEDTFFPSPESSGGHHHHHHHH
TCR beta: [sequence of about 250 residues omitted]GGGGSKAGVTQTPRYLIKTRGQQVTLSCSPISGHRSVSWYQQTPGQGLQFLFEYFSETQRNKGNFPGRFSGRQFSNSRSEMNVSTLELGDSALYLCASSFNMATGQYFGPGTRLTVTEDLKNVFPPEVAVFEPSEAEISHTQKATLVCLATGFYPDHVELSWWVNGKEVHSGVCTDPQPLKEQPALNDSRYALSSRLRVSATFWQNPRNHFRCQVQFYGLSENDEWTQDRAKPVTQIVSAEAWGRADGGGLNDIFEAQKIEWHE
Masked TCR shift [4]: 500 x
Masked TCR shift [5]: > 1000 x

B3: TCR-15 after urokinase (uPA) cleavage (TCR)
TCR alpha: MGGVSCKDVYDEAFCWTGGGGSSGGSGGSGLSGRSDNHGSSGTKQEVTQIPAALSVPEGENLVLNCSFTDSAIYNLQWFRQDPGKGLTSLLYVRPYQREQTSGRLNASLDKSSGRSTLYIAASQPGDSATYLCAVRPGGAGPFFVVFGKGTKLSVIPNIQNPDPAVYQLRDSKSSDKSVCLFTDFDSQTNVSQSKDSDVYITDKCVLDMRSMDFKSNSAVAWSNKSDFACANAFNNSIIPEDTFFPSPESSGGHHHHHHHH
TCR beta: [sequence of about 250 residues omitted]GGGGSKAGVTQTPRYLIKTRGQQVTLSCSPISGHRSVSWYQQTPGQGLQFLFEYFSETQRNKGNFPGRFSGRQFSNSRSEMNVSTLELGDSALYLCASSFNMATGQYFGPGTRLTVTEDLKNVFPPEVAVFEPSEAEISHTQKATLVCLATGFYPDHVELSWWVNGKEVHSGVCTDPQPLKEQPALNDSRYALSSRLRVSATFWQNPRNHFRCQVQFYGLSENDEWTQDRAKPVTQIVSAEAWGRADGGGLNDIFEAQKIEWHE
EC50 [6]: 1 nM

B4: TCR-14 after urokinase (uPA) cleavage (TCR)
TCR alpha: B2 TCR alpha
TCR beta: [sequence of about 250 residues omitted]GGGGSKAGVTQTPRYLIKTRGQQVTLSCSPISGHRSVSWYQQTPGQGLQFLFEYFSETQRNKGNFPGRFSGRQFSNSRSEMNVSTLELGDSALYLCASSFNMATGQYFGPGTRLTVTEDLKNVFPPEVAVFEPSEAEISHTQKATLVCLATGFYPDHVELSWWVNGKEVHSGVCTDPQPLKEQPALNDSRYALSSRLRVSATFWQNPRNHFRCQVQFYGLSENDEWTQDRAKPVTQIVSAEAWGRADGGGLNDIFEAQKIEWHE
EC50 [7]: 5 nM
